{"source": "patent US20250012721A1", "about": "“FLUORESCENCE DETECTION KIT FOR ACTIVATED COMPLEMENT C1s, DETECTION METHOD USING SAME, AND USE THEREOF” (JIANGSU UNIVERSITY, priority 2022, published 2025)", "molecules": {"B1": {"name": "C1s recombinant antibody: Recombinant antibody, heavy chain SEQ ID NO: 1, light chain SEQ ID NO: 2, expressed in HEK293T system (antibody)", "heavy": "EVQLVESGGGLVKPGGSLRLSCAASGFTFSNYAMSWVRQAPGKGLEWVATISSGGSHTYYLDSVKGRFTISRDNSKNTLYLQMNSLRAEDTALYYCARLFTGYAMDYWGQGTLVTVSSASTKGPSVFPLAPCSRSTSESTAALGCLVKDYFPEPVTVSWNSGALTSGVHTFPAVLQSSGLYSLSSVVTVPSSSLGTKTYTCNVDHKPSNTKVDKRV[human IgG4 Fc with changes not spelt out]", "light": "QIVLTQSPATLSLSPGERATMSCTASSSVSSSYLHWYQQKPGKAPKLWIYSTSNLASGVPSRFSGSGSGTDYTLTISSLQPEDFATYYCHQYYRLPPITFGQGTKLEIKRTVAAPSVFIFPPSDEQLKSGTASVVCLLNNFYPREAKVQWKVDNALQSGNSQESVTEQDSKDSTYSLSSTLTLSKADYEKHKVYACEVTHQGLSSPVTKSFNRGEC", "modifications": "The sequence is synthetized."}}, "assay_in_all_cases": "Indirect ELISA, antigen-binding specificity of C1s recombinant antibody", "settings_in_all_cases": "OD 450 nm, FIG. 5", "key": {"[1]": {"target": "T1, double-stranded activated C1s protein (Homo sapiens, UniProt P09871)", "T1 construct": "purchased Complement Technology", "T1 sequence (P09871 16-437 limits assumed)": "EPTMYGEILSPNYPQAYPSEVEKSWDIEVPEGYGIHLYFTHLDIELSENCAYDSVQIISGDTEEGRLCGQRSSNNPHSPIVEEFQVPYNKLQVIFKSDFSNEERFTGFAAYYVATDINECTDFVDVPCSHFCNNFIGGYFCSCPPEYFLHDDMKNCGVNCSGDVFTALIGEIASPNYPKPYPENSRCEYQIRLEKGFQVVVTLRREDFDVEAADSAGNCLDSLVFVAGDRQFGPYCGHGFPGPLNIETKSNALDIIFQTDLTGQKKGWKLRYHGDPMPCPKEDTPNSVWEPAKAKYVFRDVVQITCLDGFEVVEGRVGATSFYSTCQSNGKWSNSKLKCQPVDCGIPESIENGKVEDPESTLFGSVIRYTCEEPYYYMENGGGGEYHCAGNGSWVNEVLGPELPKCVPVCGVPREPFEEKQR", "T1 sequence (P09871 438-688 limits assumed)": "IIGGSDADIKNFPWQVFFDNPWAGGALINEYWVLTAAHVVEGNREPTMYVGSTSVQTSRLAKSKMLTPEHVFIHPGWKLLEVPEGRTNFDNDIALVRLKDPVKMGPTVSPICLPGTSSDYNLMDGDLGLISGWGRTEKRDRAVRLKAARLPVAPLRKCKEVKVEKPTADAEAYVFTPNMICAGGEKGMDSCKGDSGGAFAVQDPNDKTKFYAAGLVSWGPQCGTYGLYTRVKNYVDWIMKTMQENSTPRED", "method": "(§1) In this example, the antigen-binding specificity of the C1s recombinant antibody was analyzed by an indirect ELISA method according to the principle of the specificity detection of the C1s recombinant antibody shown in FIG. 4. An analysis method included the following steps:\n(§2) 200 μL (1 μg/ml) of C1s antigen (single-stranded unactivated C1s protein, double-stranded activated C1s protein, or C1r protein) was added respectively to wells of a microtiter plate, and the microtiter plate was gently shaken to make the antigen cover a well bottom of the microtiter plate. Incubation was performed overnight at 4° C. After washing the plate 3 times with a warm PBS, 200 μL of a blocking solution (10 mM PBS, 1% BSA, 0.1% casein) was added to perform blocking. Incubation was next performed at 37° C. for 1 h. The plate was washed 5 times with PBS. 100 μL of the C1s recombinant antibody was added in each well (an initial concentration of a first well was 10 μg/mL, then diluted down to 7 wells according to a ratio of ¼ gradient to set up duplicate wells), incubation was performed at 37° C. for 1 h. The liquid in the microtiter plate was spin-dried, and the plate was washed with 200 μL of warm PBS 5 times. 100 μL of a diluted secondary antibody (Goat anti-Human IgG-HRP) was added to each well of the microtiter plate. Incubation was performed for 30 min at 37° C. The liquid in the microtiter plate was spin-dried, and the plate was washed with 200 μL of warm PBS 5 times. 100 μL of a chromogenic solution (TMB) was added to each well for a chromogenic reaction, and after incubation at 37° C. for 10 min, 50 μL of a stop solution (0.25 M HCl) was finally added to terminate the chromogenic reaction. An optical density (OD) was read at 450 nm on the microplate reader."}, "C1r protein": {"target": "T2, C1r protein (Homo sapiens, UniProt P00736)", "T2 construct": "purchased Complement Technology", "T2 sequence (P00736 18-705)": "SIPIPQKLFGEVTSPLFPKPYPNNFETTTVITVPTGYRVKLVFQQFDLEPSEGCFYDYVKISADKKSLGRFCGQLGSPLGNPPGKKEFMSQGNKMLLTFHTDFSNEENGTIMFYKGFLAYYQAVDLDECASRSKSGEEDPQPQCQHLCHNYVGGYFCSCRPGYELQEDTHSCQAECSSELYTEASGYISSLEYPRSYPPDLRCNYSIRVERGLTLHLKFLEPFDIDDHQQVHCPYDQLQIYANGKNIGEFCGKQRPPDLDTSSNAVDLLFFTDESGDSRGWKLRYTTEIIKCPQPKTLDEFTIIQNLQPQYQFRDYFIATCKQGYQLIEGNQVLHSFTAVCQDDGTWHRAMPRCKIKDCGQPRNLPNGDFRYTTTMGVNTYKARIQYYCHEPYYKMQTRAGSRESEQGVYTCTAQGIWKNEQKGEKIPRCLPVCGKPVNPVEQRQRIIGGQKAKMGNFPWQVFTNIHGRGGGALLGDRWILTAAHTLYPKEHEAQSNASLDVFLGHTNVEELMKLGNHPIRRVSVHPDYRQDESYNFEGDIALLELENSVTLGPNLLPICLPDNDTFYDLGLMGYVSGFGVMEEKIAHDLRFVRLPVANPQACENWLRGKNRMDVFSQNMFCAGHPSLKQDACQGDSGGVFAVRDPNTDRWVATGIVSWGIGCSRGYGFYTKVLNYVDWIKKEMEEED", "method": "as §1, §2"}, "[2]": {"target": "T3, single-stranded unactivated C1s protein (Homo sapiens, UniProt P09871)", "T3 construct": "purchased Complement Technology", "T3 sequence (P09871 16-688)": "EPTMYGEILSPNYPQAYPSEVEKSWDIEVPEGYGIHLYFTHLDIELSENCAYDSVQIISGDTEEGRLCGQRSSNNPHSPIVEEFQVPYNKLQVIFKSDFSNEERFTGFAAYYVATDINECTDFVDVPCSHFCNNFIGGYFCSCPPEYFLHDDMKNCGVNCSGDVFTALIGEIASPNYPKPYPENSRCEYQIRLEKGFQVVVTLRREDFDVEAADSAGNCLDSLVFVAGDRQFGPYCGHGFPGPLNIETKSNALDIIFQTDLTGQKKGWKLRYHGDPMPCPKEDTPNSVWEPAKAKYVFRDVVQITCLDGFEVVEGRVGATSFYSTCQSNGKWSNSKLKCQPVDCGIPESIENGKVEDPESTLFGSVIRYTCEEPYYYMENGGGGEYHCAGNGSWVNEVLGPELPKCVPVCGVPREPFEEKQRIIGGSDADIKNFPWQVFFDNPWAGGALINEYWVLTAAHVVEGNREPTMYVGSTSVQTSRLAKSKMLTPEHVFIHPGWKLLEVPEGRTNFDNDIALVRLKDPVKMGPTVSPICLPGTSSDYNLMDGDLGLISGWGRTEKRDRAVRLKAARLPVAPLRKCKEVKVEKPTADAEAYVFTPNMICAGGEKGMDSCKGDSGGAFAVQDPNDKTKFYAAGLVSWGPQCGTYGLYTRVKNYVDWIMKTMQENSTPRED", "method": "as §1, §2"}}, "data": [{"molecule": "B1", "values": [{"measurement": "binding ability", "setting": "[1]", "value": "strong binding ability"}, {"measurement": "binding ability", "setting": "C1r protein", "value": "no binding ability"}, {"measurement": "binding ability", "setting": "[2]", "value": "weak binding ability"}]}]}
